Sequences with one replicate were seen in a single cluster, so their values are uncertain.
tested on: ATP; assay: switch fluorescence ratio, 500 uM ATP over buffer (Cy3 cluster intensity, sum of 5 cycles each) (fold (ratio)); higher = stronger signal-on switching upon ATP binding; sequences stand for … in TCGTCGGCAGCGTCAGATGTGTATAAGAGACAGTTTTTTTTTTTTTTTTTTTTTTTTT…TC; conditions: aptamer strand: ATP DNA aptamer (quencher-CACCTGGGGGAGTATTGCGGAGGAAGG + anchor), 100 nM annealed; ATP concentration: 500 uM; one replicate
Procedure, shortened: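 Per cluster, summed Cy3 intensity from the target cycles was divided by that from the buffer cycles to give the fluorescence ratio, then averaged per switch-domain sequence. Clusters outside 100-1000 RFU were excluded. The Cy3-labelled switching-strand clusters, on a modified Illumina MiSeq flow-cell, were annealed to 100 nM quencher-labelled ATP aptamer and imaged in selection buffer, then after 15 min with 500 uM ATP at 22 °C, for five cycles with NaOH stripping and re-annealing between them.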
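Note: ATP exposure 15 min at 22 °C before imaging.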

Row | Sequence | switch fluorescence ratio
1 | TTACTGGTGC | 1.16
2 | TTACTGTAGA | 1
3 | TTACTGTTAA | 1.08
4 | TTACTTACGG | 1.59
5 | TTACTTATAC | 1.17
6 | TTACTTGCTT | 1.05
7 | TTAGAACTCG | 1.1
8 | TTAGACCCGG | 0.981
9 | TTAGAGCACG | 1.02
10 | TTAGAGTCC | 1.04
11 | TTAGATTAGT | 0.991
12 | TTAGATTGG | 1.02
13 | TTAGCAAGAT | 3.18
14 | TTAGCACGT | 1.04
15 | TTAGCATAGG | 1.02
16 | TTAGCATTTT | 1.01
17 | TTAGCCAATT | 1.06
18 | TTAGCCGCCC | 1.46
19 | TTAGCCTCGT | 0.999
20 | TTAGCGAACC | 1.07
21 | TTAGGAATC | 1.21
22 | TTAGGACCAG | 1.01
23 | TTAGGAGGAT | 0.979
24 | TTAGGAGGG | 0.961
25 | TTAGGAGTAT | 1.01
26 | TTAGGCTGAA | 1.02

Row | Sequence | switch fluorescence ratio
27 | TTAGGCTTTG | 1
28 | TTAGGGACGA | 1.05
29 | TTAGGGT | 0.993
30 | TTAGGGTGGC | 1.05
31 | TTAGGGTTGC | 0.975
32 | TTAGGTACCT | 0.994
33 | TTAGGTATCA | 0.946
34 | TTAGGTATG | 1
35 | TTAGGTGTA | 0.972
36 | TTAGTAAACT | 0.99
37 | TTAGTAACAG | 1
38 | TTAGTACAG | 1.02
39 | TTAGTACCCC | 1.1
40 | TTAGTAGAAT | 0.983
41 | TTAGTAGCCC | 0.977
42 | TTAGTAGGCG | 0.954
43 | TTAGTATGGT | 1.02
44 | TTAGTCACTT | 0.986
45 | TTAGTCAGCA | 1.08
46 | TTAGTCGGTT | 0.997
47 | TTAGTCGTCA | 0.961
48 | TTAGTCTAGC | 1.01
49 | TTAGTCTGTA | 0.984
50 | TTAGTGTCTG | 0.991
51 | TTAGTGTGAG | 0.973
52 | TTAGTGTTGG | 0.995

Row | Sequence | switch fluorescence ratio
53 | TTAGTTAGGG | 1.03
54 | TTAGTTGCCC | 0.944
55 | TTAGTTTCGA | 0.944
56 | TTAGTTTCGT | 0.989
57 | TTAGTTTGG | 0.987
58 | TTATAAAAG | 0.975
59 | TTATAAAATT | 1.02
60 | TTATAAACAG | 1.02
61 | TTATAACTCT | 0.981
62 | TTATAAGGGC | 1.04
63 | TTATACCCAT | 0.998
64 | TTATACTACA | 1.09
65 | TTATAGGAAT | 0.988
66 | TTATATATGA | 1.02
67 | TTATATCGA | 1.02
68 | TTATATGGTT | 0.99
69 | TTATCATATT | 0.993
70 | TTATCATCAG | 1.02
71 | TTATCCACAC | 1.01
72 | TTATCCCCGC | 1.45
73 | TTATCCTCGT | 0.956
74 | TTATCTGCAC | 1.08
75 | TTATCTGGA | 1.05
76 | TTATGATCAC | 1.04
77 | TTATGCATTA | 1
78 | TTATGGATGC | 1.04

Row | Sequence | switch fluorescence ratio
79 | TTATGGGGCA | 1.07
80 | TTATGTCACA | 1.03
81 | TTATGTGTAA | 1
82 | TTATTAGAG | 1.05
83 | TTATTATAGC | 1.03
84 | TTATTATCG | 1.01
85 | TTATTCAC | 1.05
86 | TTATTGGTTA | 0.997
87 | TTATTTATAG | 0.973
88 | TTATTTCGGA | 1.09
89 | TTATTTGGAC | 1.03
90 | TTATTTTTG | 0.961
91 | TTCAAAAAGG | 1
92 | TTCAAATATG | 1.01
93 | TTCAACACAT | 0.976
94 | TTCAACCCAG | 1.06
95 | TTCAACGAAG | 0.999
96 | TTCAACGAGT | 1.01
97 | TTCAACTGCT | 1.02
98 | TTCAAGAGCT | 0.957
99 | TTCAAGTTTG | 0.972
100 | TTCAATAGTG | 0.993
101 | TTCAATATTG | 1
102 | TTCAATGATC | 1.06
103 | TTCAATGTGT | 0.991
104 | TTCACAATTT | 0.959

Row | Sequence | switch fluorescence ratio
105 | TTCACAGAGA | 1.03
106 | TTCACAGGA | 0.997
107 | TTCACCAAAT | 1.02
108 | TTCACCCGCC | 1.13
109 | TTCACCGTGC | 1.34
110 | TTCACGAAAA | 1.15
111 | TTCACGAGGA | 1.02
112 | TTCACGGGCT | 1.01
113 | TTCACTAATA | 1.02
114 | TTCACTTGCA | 0.966
115 | TTCAGATTCC | 1.04
116 | TTCAGCATCT | 0.995
117 | TTCAGCGGGG | 0.979
118 | TTCAGCTTAT | 1.61
119 | TTCAGGGAGT | 0.983
120 | TTCAGGGTTG | 0.986
121 | TTCAGGTCAT | 0.991
122 | TTCAGGTCCG | 1
123 | TTCAGTCCCC | 1.07
124 | TTCAGTTAC | 1.06
125 | TTCATAACTA | 1.02
126 | TTCATAAGTT | 1.03
127 | TTCATAGATC | 0.989
128 | TTCATAGTAA | 1.05
129 | TTCATATGGG | 0.969
130 | TTCATGATAT | 1.04

Row | Sequence | switch fluorescence ratio
131 | TTCATGATCT | 0.988
132 | TTCATGCGAA | 1.19
133 | TTCATTCGAG | 0.987
134 | TTCATTGCGG | 1.01
135 | TTCATTTTTA | 0.987
136 | TTCCAAGGCG | 1.02
137 | TTCCAAGTGT | 1.05
138 | TTCCACAGCG | 1.04
139 | TTCCACTCGG | 1.01
140 | TTCCACTTCA | 1.12
141 | TTCCAGCCGA | 1.02
142 | TTCCAGCTGA | 1.04
143 | TTCCAGTTCT | 1.01
144 | TTCCATTAAT | 1.03
145 | TTCCCAGCGC | 1.16
146 | TTCCCATTCG | 1.02
147 | TTCCCCGACT | 1.06
148 | TTCCCCGATT | 1.12
149 | TTCCCGTATT | 1.29
150 | TTCCCTTTAT | 1.02
151 | TTCCGAACGA | 3.67
152 | TTCCGAATGG | 1.11
153 | TTCCGACACT | 1.55
154 | TTCCGAGTCC | 1.05
155 | TTCCGCCATA | 1.87
156 | TTCCGCGACA | 4.15

Row | Sequence | switch fluorescence ratio
157 | TTCCGGAGTA | 3.78
158 | TTCCGGTTCA | 0.975
159 | TTCCTAATGA | 1.01
160 | TTCCTACACA | 1.49
161 | TTCCTAGCGC | 0.991
162 | TTCCTCAAGC | 1.06
163 | TTCCTCAATT | 1.19
164 | TTCCTCACGA | 2.12
165 | TTCCTCCTA | 1.86
166 | TTCCTCGAGG | 0.985
167 | TTCCTCGTCG | 0.913
168 | TTCCTGACTA | 1.01
169 | TTCCTGAGCT | 1.25
170 | TTCCTGGGCT | 1.05
171 | TTCCTTCAGG | 1.03
172 | TTCCTTTTCC | 1.1
173 | TTCGAAATAG | 2.45
174 | TTCGAACC | 1.03
175 | TTCGAAGAGC | 1.04
176 | TTCGAAGAGT | 0.974
177 | TTCGACGGGC | 1.25
178 | TTCGAGACAG | 1.01
179 | TTCGAGGAAC | 1.01
180 | TTCGAGGACG | 0.991
181 | TTCGAGGCCA | 1.13
182 | TTCGAGTTTA | 0.958

Row | Sequence | switch fluorescence ratio
183 | TTCGATATAC | 3.67
184 | TTCGATCTAA | 1.01
185 | TTCGATGGGC | 0.995
186 | TTCGATTTCC | 1.03
187 | TTCGCAAATT | 2.11
188 | TTCGCAGACT | 3.25
189 | TTCGCCAGGA | 1.04
190 | TTCGCCGATG | 1
191 | TTCGCGATAG | 3.41
192 | TTCGCGCGTA | 0.984
193 | TTCGCTGAGA | 1.05
194 | TTCGGAAAAG | 1.01
195 | TTCGGAAGGT | 0.999
196 | TTCGGACTC | 1.59
197 | TTCGGAGGAC | 1.07
198 | TTCGGATACT | 0.98
199 | TTCGGATATC | 1.05
200 | TTCGGATGAC | 1.73
201 | TTCGGATTTA | 1.02

From the supplement of paper PMC10126150
